Laboratory results as given in PMC4336329 (PLoS ONE, 2015).
About 14,000 (4.5%) of roughly 310,000 compounds showed an effect of 50% or more. The effect is printed as a negative number. Some of the results follow.

Biological target: human ether-à-go-go-related gene (hERG) potassium channel (human, UniProt Q12809)
Assay: primary screen, population patch clamp on CHO cells stably expressing hERG
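Note: peak tail current of the secondary pulse compared with the same well before compound.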

Chain of human ether-à-go-go-related gene (hERG) potassium channel (Q12809 whole entry, looked up): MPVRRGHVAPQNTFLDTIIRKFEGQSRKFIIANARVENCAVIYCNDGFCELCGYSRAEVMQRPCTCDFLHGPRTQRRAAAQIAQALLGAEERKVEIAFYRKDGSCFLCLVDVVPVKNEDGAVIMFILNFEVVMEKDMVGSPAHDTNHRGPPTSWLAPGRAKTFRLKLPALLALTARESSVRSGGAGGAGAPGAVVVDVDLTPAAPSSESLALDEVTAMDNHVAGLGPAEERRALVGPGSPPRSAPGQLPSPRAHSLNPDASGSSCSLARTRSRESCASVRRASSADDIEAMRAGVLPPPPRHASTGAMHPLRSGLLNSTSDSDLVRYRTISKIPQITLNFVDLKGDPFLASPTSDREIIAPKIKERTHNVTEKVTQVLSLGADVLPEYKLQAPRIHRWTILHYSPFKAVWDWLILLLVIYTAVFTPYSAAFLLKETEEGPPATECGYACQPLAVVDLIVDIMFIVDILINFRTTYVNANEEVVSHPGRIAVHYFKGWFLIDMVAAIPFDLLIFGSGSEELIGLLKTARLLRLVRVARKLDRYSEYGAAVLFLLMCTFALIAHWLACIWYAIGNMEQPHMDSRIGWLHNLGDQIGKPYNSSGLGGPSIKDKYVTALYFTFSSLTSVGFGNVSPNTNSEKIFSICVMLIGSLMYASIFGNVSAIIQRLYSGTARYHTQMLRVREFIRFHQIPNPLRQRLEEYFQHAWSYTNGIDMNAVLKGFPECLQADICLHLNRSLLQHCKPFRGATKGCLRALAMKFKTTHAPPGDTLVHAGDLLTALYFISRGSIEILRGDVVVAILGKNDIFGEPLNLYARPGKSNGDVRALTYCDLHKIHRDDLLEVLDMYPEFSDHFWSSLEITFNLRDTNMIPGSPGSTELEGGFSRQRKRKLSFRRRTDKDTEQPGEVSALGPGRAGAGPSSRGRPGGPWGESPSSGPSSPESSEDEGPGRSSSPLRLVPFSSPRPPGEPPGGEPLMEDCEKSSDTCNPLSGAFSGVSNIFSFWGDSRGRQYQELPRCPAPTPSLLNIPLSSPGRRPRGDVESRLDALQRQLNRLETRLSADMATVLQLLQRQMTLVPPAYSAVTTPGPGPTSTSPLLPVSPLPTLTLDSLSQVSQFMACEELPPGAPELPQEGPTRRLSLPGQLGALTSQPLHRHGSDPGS

SMILES	hERG current change (%, negative = inhibition) at 10uM [%]
CCOc1ccc(/C=C(\C#N)C(=O)c2c(C)[nH]c3ccccc23)cc1OC	-4.5
CC(C)n1cnc2c(NCc3ccccc3)cc(Cc3ccc(F)cc3)cc21	14.5
O=S(=O)(c1ccccc1)C1(C2CC(c3ccccc3)=NO2)CC(O)C1 (stereo not drawn)	-35.1
CC1CCN(c2ccc(C(=O)NCc3ccc4c(c3)OCO4)cc2[N+](=O)[O-])CC1	-9.79
CCn1c(NCc2cc(OC)ccc2OC)nc2ccccc21	-22.8
Fc1c(F)c(F)c(/C=N/NC(=S)Nc2cccnc2)c(F)c1F	11.6
O=C(N/N=C/c1ccncc1)NC1CCCCC1	20.1
CC(C)CN(CC(C)C)S(=O)(=O)N1CCC(C(=O)NCc2ccccn2)CC1	-4.86
Fc1ccc(CNC(=S)Nc2cccc(C(F)(F)F)c2)cc1	0.46
CCS(=O)(=O)N1CCC(C(=O)Nc2ccccc2OC)CC1	19.6
CCOc1ccc(N=C(NC#N)SCC(=O)NC2CC2)cc1	-8.23
CC1CCCC(C)N1C(=O)Cn1nnc(-c2ccccc2)n1 (stereo not drawn)	14.7
COC(=O)C(Cc1ccccc1)NC(=O)c1ccc(C)cc1 (stereo not drawn)	5.08
CC(NC1c2ccccc2-c2ccccc21)c1ccccc1 (stereo not drawn)	9.54
COc1ccc(OCC(=O)Nc2ccc(NC(=O)c3cccs3)c(OC)c2)cc1	-21.5
NS(=O)(=O)c1ccc(NC(=S)NC(=O)C2CCCC2)cc1	-7.76
O=C(CCc1nc2ccccc2s1)OCC(=O)N1CCN(C(=O)c2ccco2)CC1	-25.6
O=C(COc1ccc(F)cc1)Nc1cc(Cl)ccc1-n1cncn1	-8.31
Cc1ccnc(NC(=O)c2cc(S(=O)(=O)N3CCCCC3)ccc2Cl)c1	-7.56
O=C(COC(=O)c1ccncc1)NCc1ccccc1	3.58
CCOc1ccc(NC(=O)c2cc3c(=O)n(C)c4ccccc4c3n2C)cc1	-2.87
COc1ccc(CNC(=O)[C@@H](NC(=O)C2CCN(C(=O)[C@@H]3CCCN3C(=O)OC(C)(C)C)CC2)C(C)C)cc1	-9.4

SMILES	hERG current change (%, negative = inhibition) at 10uM [%]
CCCCNC(=O)c1cn(CC)c2cc(N3CCN(C)CC3)c(F)cc2c1=O	-0.449
COc1ccc(NC(=O)c2ccc(NC(=O)CSc3nccc(=O)[nH]3)cc2)cc1	15.4
Cc1ccc(C(=O)OCC(=O)N2CCCCCC2)c(O)c1	5.38
CC(C)(C)c1ccc(C(=O)c2c[nH]c(C(=O)NCC3CCCO3)c2)cc1 (stereo not drawn)	-1.01
CCOc1ccc(CNC(=O)c2ccco2)cc1	6.48
CCCc1nc2sc3c(c2c(=O)n1NC(=O)CCC(=O)O)CCCC3	-4.76
COc1ccc(OC)c(C2NC(=O)NC(C)=C2C(=O)OCc2ccccc2)c1 (stereo not drawn)	1.62
COc1ccccc1CCNC(=O)C(=O)NCC1CCCN1S(=O)(=O)c1ccccc1 (stereo not drawn)	-48.6
Cl.N=C(N=C(N)N)N1CCOCC1	4.14
CSc1nc(-c2ccccc2)nn1C(=O)c1ccccc1	16.6
Cc1ncoc1C(=O)N1CCCC(C(=O)c2ccc(Oc3ccccc3)cc2)C1 (stereo not drawn)	-45
O=C(NNC(=S)Nc1ccc(Br)cc1Cl)c1ccco1	23.9
Cc1noc(NS(=O)(=O)c2ccc(NC(=O)CCC3CCCC3)cc2)c1C	-1.22
CCCCC(=O)NC(=S)Nc1nnn(CCC)n1	9.55
CC1(c2ccccc2)NC(=O)N(NC(=O)COC(=O)c2cc(Br)ccc2O)C1=O (stereo not drawn)	-5.01
Cc1c(NC(=O)C(C)OC(=O)COc2ccccc2)c(=O)n(-c2ccccc2)n1C (stereo not drawn)	14.9
Cc1cc(Br)ccc1OCC(=O)N(Cc1nc(-c2ccccc2)no1)C(C)C	-11.4
NC(=O)C1=C[C@@H](c2ccc(Br)cc2)C[C@@H](OCc2ccc(CO)cc2)O1	-25
Cc1cc(=O)[nH]c(N/N=C/c2ccc(Cl)c([N+](=O)[O-])c2)n1	-16.5
Cc1cc(-c2ccccc2)n2ncc(-c3ccccc3)c2n1	4.32
O=C(Nc1ccc(Cl)cc1)c1cc2c(cc1O)[nH]c1ccccc12	21
O=C(Nc1ccc(-c2nnn(CC(=O)N3CCN(C(=O)c4ccco4)CC3)n2)cc1)c1ccccc1F	-53.2

SMILES	hERG current change (%, negative = inhibition) at 10uM [%]
CC(C)(C)CNC(CO)C12CC3CC(CC(C3)C1)C2.Cl (stereo not drawn)	-4.3
Cc1cccn2c(CN[C@H]3CCCCNC3=O)c(C(=O)N3CCOCC3)nc12	19.9
CCOc1ccc(CCNC(=O)c2cccc(C#N)c2)cc1OCC	-6.55
CC(=O)c1cccc(NC(=O)/C(=C/c2ccncc2)NC(=O)c2ccccc2)c1	10.9
COc1ccccc1CCN=C(N)NS(=O)(=O)c1ccc(C)cc1	-7.61
O=c1c(Cc2c(F)cccc2Cl)c(O)ccn1CCc1ccccn1	9.97
COc1ccc2c(c1OC)C(=O)N1C2SC(C)(C)[C@H]1C(=O)NC1CCCC1 (stereo partly drawn)	8.48
CC1(C)CC(=O)C(C(C2=C(O)CC(C)(C)CC2=O)c2cccs2)C(=O)C1 (stereo not drawn)	-13.9
Cl.O=S(=O)(c1ccc2nc(Cc3ccccc3)[nH]c2c1)N1CCOCC1	-6.54
O=C(/C=C/c1ccc2c(c1)OCO2)c1ccccn1	-3.32
O=C(O)CCC(=O)N1CCc2c([nH]c3ccccc23)C1C(F)(F)F (stereo not drawn)	15.7
Cc1ccc(NC(=O)CCSc2nnc3ccccn23)cc1	2.6
Cc1ccc(S(=O)(=O)NCc2ccc(C(=O)NC3CCC(O)CC3)cc2)cc1C (stereo not drawn)	1.45
CCCNC(=O)c1onc(CSc2ccc(Cl)cc2)c1C(=O)NC(C)C	-31.2
CCOc1ccc(N2C(=O)NC(=O)/C(=C\c3ccc(N4CCCCC4)o3)C2=O)cc1	1.36
COc1ccc(-c2cc(-c3ccccc3)nc(=O)[nH]2)cc1	-5.62
Cc1cccc(N2C(=O)CC(Sc3nc(-c4ccccc4)c4cc(Cl)ccc4n3)C2=O)c1 (stereo not drawn)	4.73
COc1ccc(C(=O)N(C)Cc2ccccc2F)cc1S(=O)(=O)N1CCCC1	-9.86
COc1ccc(COC(=O)Oc2ccc(CNC(C)=O)cc2OC)c([N+](=O)[O-])c1	-8.37
CC1(C(=O)Nc2c(F)c(F)c(F)c(F)c2F)CC1(Br)Br (stereo not drawn)	2.67
Cc1nn(C)c(Cl)c1C(=O)NCC(=O)O	7.54
CCOc1ccccc1NC(=O)CN(c1cc(C)cc(C)c1)S(=O)(=O)c1c(C)noc1C	10.6

SMILES	hERG current change (%, negative = inhibition) at 10uM [%]
O=C(CCC1CCCN(Cc2cccc(Cl)c2)C1)NCc1ccccc1F (stereo not drawn)	-50.9
Cc1ccc(Cn2nnc3c(=O)[nH]c(C4CCCN(S(=O)(=O)c5ccccc5F)C4)nc32)cc1 (stereo not drawn)	12.2
Cc1ccc2cc(CN(CC3CCCO3)S(=O)(=O)c3cccc4nsnc34)c(=O)[nH]c2c1 (stereo not drawn)	-46.9
COc1ccc(NC(=O)CCCN2C(=O)C(c3ccccc3)Oc3cccnc32)cc1 (stereo not drawn)	5.82
CCc1c(C)nc(N)nc1OCC(F)(F)C(F)F	1.23
COc1cc(C(=O)Nc2ccc(NC(C)=O)cc2)ccc1OCc1ccccc1	24.5
O=C(COC(=O)C12CC3CC(CC(C3)C1)C2)Nc1ccc(OC(F)F)cc1	-17.3
CCC(=O)N1CCc2cc(Br)cc(S(=O)(=O)N3CCCCCC3)c21	-28.6
O=C(c1ccccc1)c1ccc(OCC(O)CN2CCN(S(=O)(=O)N3CCCCC3)CC2)cc1 (stereo not drawn)	-73.5
COc1cc2c(cc1OC)CN(CC(=O)Nc1ccc3c(c1)OCO3)CC2	3.77
O=C(Nc1cccc(C(=O)N2CCOCC2)c1)c1ccc([N+](=O)[O-])cc1	-15
COC1=CC2(O)CCCC2=CC1=O (stereo not drawn)	9.57
O=C(NCCc1ccccc1)C1CCCN1C(=O)Nc1cccc(Cl)c1 (stereo not drawn)	-15.2
COc1ccccc1CN1C(=O)C2CC=CCC2C1=O (stereo not drawn)	-14.9
O=S(=O)(N/N=C1/CC(c2ccccc2)Oc2ccccc21)c1ccc(Br)cc1 (stereo not drawn)	-2.19
O=C(C1CC1)N1CCC(c2nc(-c3ccc(S(=O)(=O)N4CCCC4)cc3)no2)CC1	-13
COc1ccc(-c2nn(-c3ccccc3)cc2C(=O)N2CCN(S(=O)(=O)c3cccc(F)c3)CC2)cc1	-0.945
Clc1ccc(-c2cc(-c3nnc4n3CCCCC4)c3ccccc3n2)cc1	-42.1
CCOC(=O)N1CCC(=NNC(=O)c2cc3ccccc3cc2O)CC1	-2.89
O=C(CSc1nnc(-c2ccc(O)cc2)n1-c1ccccc1)CC(=O)Nc1ccccc1	-5.87
CCOC(=O)c1c(S(=O)(=O)N2CCN(c3ccc(F)cc3)CC2)c(C)n(C)c1C	-4.6
